From article PMC4336329 (PLoS ONE, 2015)
Screen size: about 310,000 compounds; about 2,200 (0.71%) showed an effect of 50% or more. Effects have a minus sign here. The list shows a part of the results.

biological target: human ether-à-go-go-related gene (hERG) potassium channel (human, UniProt Q12809); assay: primary screen, population patch clamp on CHO cells stably expressing hERG
Sequence (Q12809 whole entry, looked up): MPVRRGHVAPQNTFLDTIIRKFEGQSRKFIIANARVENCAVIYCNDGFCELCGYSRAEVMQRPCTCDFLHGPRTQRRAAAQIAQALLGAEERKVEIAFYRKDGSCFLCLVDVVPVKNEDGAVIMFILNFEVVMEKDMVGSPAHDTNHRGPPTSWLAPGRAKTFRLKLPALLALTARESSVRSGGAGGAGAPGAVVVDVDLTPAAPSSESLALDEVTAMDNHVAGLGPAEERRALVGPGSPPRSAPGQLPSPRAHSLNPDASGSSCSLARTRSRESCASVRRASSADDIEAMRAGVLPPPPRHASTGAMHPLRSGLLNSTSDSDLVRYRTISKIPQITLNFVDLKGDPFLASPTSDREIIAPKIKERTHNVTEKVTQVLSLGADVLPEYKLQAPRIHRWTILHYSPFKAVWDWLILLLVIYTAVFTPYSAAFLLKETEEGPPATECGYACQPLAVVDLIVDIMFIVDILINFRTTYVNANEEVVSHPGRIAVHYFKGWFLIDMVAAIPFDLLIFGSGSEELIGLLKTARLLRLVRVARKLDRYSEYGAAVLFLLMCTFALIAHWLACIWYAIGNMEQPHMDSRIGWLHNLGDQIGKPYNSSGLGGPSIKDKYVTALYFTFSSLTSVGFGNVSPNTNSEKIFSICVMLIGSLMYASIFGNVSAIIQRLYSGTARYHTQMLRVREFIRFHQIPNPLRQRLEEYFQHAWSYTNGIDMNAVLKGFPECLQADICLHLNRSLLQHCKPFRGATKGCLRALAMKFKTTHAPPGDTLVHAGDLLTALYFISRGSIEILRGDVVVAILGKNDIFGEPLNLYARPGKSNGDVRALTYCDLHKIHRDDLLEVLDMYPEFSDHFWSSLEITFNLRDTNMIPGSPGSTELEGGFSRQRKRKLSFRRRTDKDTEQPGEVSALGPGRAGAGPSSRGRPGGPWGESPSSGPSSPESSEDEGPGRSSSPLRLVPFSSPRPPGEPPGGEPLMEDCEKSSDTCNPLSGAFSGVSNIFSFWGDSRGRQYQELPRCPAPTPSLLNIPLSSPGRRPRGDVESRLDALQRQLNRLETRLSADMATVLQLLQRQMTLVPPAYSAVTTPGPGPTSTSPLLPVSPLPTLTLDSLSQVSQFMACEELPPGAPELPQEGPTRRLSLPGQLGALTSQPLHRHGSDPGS

Point of comparison: `COc1cccc(NC(=O)CSc2nnc(CNC(=O)c3ccccc3F)o2)c1`, “hERG current change (%, negative = inhibition) at 1uM” value 9.6%. Against it:
- C=CCN(c1ccc(C(=O)OC)cc1)S(=O)(=O)c1ccccc1 — lower, -0.566%
- CCOC(=O)c1sc(NC(=O)c2sccc2C)cc1C — higher, 9.64%
- O=C(Cn1nnc(-c2ccccc2)n1)N/N=C/c1ccco1 — higher, 15.9%
- CCNC(=S)N1CCN(S(=O)(=O)c2cccc(C(F)(F)F)c2)CC1 — higher, 10.7%
- O=C(COC(=O)c1n[nH]c2ccccc12)c1ccc(F)c(F)c1 — lower, 6.22%
- Cc1ccn2c(=O)nc(SCC(=O)NCCc3ccccc3)nc2c1 — lower, -8.94%
- CC(C)Nc1nc2cccnc2s1 — higher, 11.4%
- COc1ccc(NC(=O)c2c(C(F)(F)F)nn(C)c2SCc2ccccc2Cl)cc1 — lower, 6.71%
- COc1ccc(C)cc1NC(=O)c1c(C)nn(Cc2ccccc2)c1Cl — lower, 1.24%
- CN(CCc1ccccc1)C1CCCN(C(=O)Cn2cccn2)C1 (stereo not drawn) — lower, 8.7%
- C=CCNC(=O)c1cc2nc(C3CC3)cc(C(F)F)n2n1 — lower, 5.93%
- CCOC(=O)C(=NC(C)CC)NNc1ccc(Br)cc1 (stereo not drawn) — higher, 16.9%
- CCOC(=O)N1CCN(Cc2c(O)ccc3ccccc23)CC1 — lower, 4.73%
- CCCOc1ccc(C2C(C(=O)c3ccco3)=C(O)C(=O)N2CCCn2ccnc2)cc1 (stereo not drawn) — lower, -2.65%
- O=C(Nc1nnc(COc2ccccc2)s1)c1ccco1 — higher, 9.83%
- COc1ccccc1-n1c(=O)c(C#N)c(-c2ccc([N+](=O)[O-])cc2)c2cc(C(=O)c3ccccc3O)cnc21 — lower, 8.44%
- COc1ccc(NC(=O)CSc2nnc(Cc3cccn3C)n2CCc2ccccc2)c(OC)c1 — lower, 3.67%
- CC(C)(C)CC(=O)Nc1nn[nH]n1 — higher, 13.3%
- CC1=C(C#N)CCC(=O)N1Cc1c(F)cccc1Cl — higher, 15.6%
- CN(Cc1ccc(F)cc1)C(=O)c1ccc2c(c1)NC(=O)CS2 — lower, -4.06%
- C(=N\c1c(-c2ccccc2)nc2n1CCS2)/c1ccccc1 — higher, 13.9%
- CCc1nnc(NC(=O)c2cc(-c3ccncc3)nc3ccccc23)s1 — higher, 11.1%
- S=C(NCc1ccccn1)Nc1ccccc1 — lower, 7.18%
- Fc1ccc(-c2nc3c(-c4ccc(F)cc4)cnn3cc2CCN2CCOCC2)cc1 — lower, -3.19%
- CCCc1n(CC)c2ccccc2[n+]1CC(O)COC1CCCCC1.[I-] (stereo not drawn) — lower, 4.05%
- CC(C)C(=O)N(Cc1ccccc1)c1ccccn1 — lower, 7.2%
- CC(NC(=O)C1CCN(S(=O)(=O)c2cc([N+](=O)[O-])ccc2Cl)CC1)c1ccccc1 (stereo not drawn) — lower, 8.98%
- O=C1CS/C(=C/C(=O)c2cccc(Cl)c2)N1 — higher, 12.6%
- CC(=O)O.Cc1nc(NCCc2ccc(F)cc2)c(C#N)c(C)c1[N+](=O)[O-] — lower, -41.9%
- COCCn1c(=O)[nH]c2cc(C(=O)NC3CCCCCC3)ccc2c1=O — lower, 6.24%
- COC(=O)C1=C(c2ccc(-c3ccccc3)c(F)c2)C[C@@H]2CC[C@H]1N2C(=O)NCc1ccco1 — higher, 23.6%
- CCc1ccc(C2CC(c3ccccc3C)n3nc(N)nc3N2)cc1 (stereo not drawn) — lower, 9.04%
- Cc1cc(Cl)ccc1OCC(=O)NCCOc1nc(N2CCCCC2)nc(N2CCOCC2)n1 — lower, -3.98%
- CCOc1ccc(C(C(=O)NCC2CCCO2)N(C(=O)c2snc(C(N)=O)c2N)c2ccc3c(c2)OCCO3)cc1 (stereo not drawn) — lower, 8.86%
- COc1ccc(/C=N/NC(=O)C(C)n2nnc3ccccc32)cc1OC (stereo not drawn) — higher, 9.98%
- C=CCNC(=S)NNC(=O)c1cccnc1 — higher, 11.7%
- COc1cc(C(CCN2CCOCC2)c2c(OC)cc(OC)c3c(C)cc(=O)oc23)cc(OC)c1OC (stereo not drawn) — lower, -70.3%
- O=C(Nc1ccccc1)N1CCC2(CC1)OCCO2 — lower, 6.31%
- Cc1ccc(C(=O)N/N=C/c2cn(Cc3ccccc3)c3ccccc23)cn1 — higher, 13.9%
- O=C(CNC1CCCCC1)Nc1ccc([N+](=O)[O-])cc1C(=O)Nc1ccccc1F — lower, 2.97%
- C/C(=N\O)c1ccc2c(c1)OCCO2 — higher, 12.6%
- O=C(CCSc1ccccc1)Nc1ccccc1C(=O)N1CCCC1 — lower, 2.77%
- Cc1c(NC(=O)CSc2ccccc2C(=O)Nc2cccnc2)c(=O)n(-c2ccccc2)n1C — higher, 11.7%
- Cc1ccc(C(=O)OCC(=O)N(C)C2CCS(=O)(=O)C2)cc1S(=O)(=O)N1CCCCC1 (stereo not drawn) — lower, 3.88%
- CCc1ccc(CNn2cnnc2SCC(=O)NC(C)(C)C)cc1 — lower, 2.56%
- CCC1(C)Cc2ccccc2-c2nc[nH]c(=O)c21 (stereo not drawn) — higher, 12.5%
- ClCc1nc2ccccc2n1Cc1ccccc1 — higher, 15.7%
- COc1ccc(NC(=O)CSc2nc3ccccc3c(=O)n2C)cc1 — higher, 11.1%
- O=C(O)/C=C\C(=O)Nc1ccc(F)c(F)c1F — lower, 4.48%
- COc1ccc(N2CCN(S(=O)(=O)c3cn(C)c(=O)n(C)c3=O)CC2)cc1 — lower, 7.97%
- CCC(C)NC(=O)CC(NS(=O)(=O)c1ccc(C)cc1)c1ccc(OC)cc1 (stereo not drawn) — lower, 2.46%
- O=C(c1ccc(Cl)cc1)N1N=C(c2ccccn2)CC1(O)C(F)(F)F (stereo not drawn) — higher, 9.99%
- COC(=O)[C@@H](Cc1c[nH]c2ccccc12)NC(=O)c1ccc2c(c1)OCO2 — lower, 8.37%
- S=C(Nc1cccc(Cl)c1)NC1CCCCC1 — higher, 14.8%
- Cc1ccc(NC(=O)C(C)SCC(=O)Nc2ccc(F)cc2)cc1S(=O)(=O)N1CCOCC1 (stereo not drawn) — lower, 0.559%
- C=C[C@]1(C)C=C2CCC3[C@](C)(CCC[C@@]3(C)C(=O)O)C2CC1 (stereo partly drawn) — lower, 8.93%
- COc1ccc2c(c1)nc(N)n2Cc1ccccc1 — lower, -6.73%
- O=C(NNC(=O)C12CC3CC(CC(Cl)(C3)C1)C2)c1csc(N2CCOCC2)n1 — higher, 10.6%
- CC(C)C(=O)NC(CC(=O)O)c1ccccc1 (stereo not drawn) — lower, 6.34%
- Cc1ccc(CNC(=O)CN(c2ccc(C)cc2)S(=O)(=O)c2c(C)n[nH]c2C)cc1 — lower, 4.29%
- CCOC(=O)C1CCN(C(=O)c2ccccc2NS(=O)(=O)c2ccccc2)CC1 — lower, 1.08%
- COc1cc(NC(=O)CCc2nnc3ccc(N4CCC5(CC4)OCCO5)nn23)cc(OC)c1 — higher, 15.9%
- O=C(Cc1cccs1)NNC(=O)c1ccc(F)cc1 — lower, 9.06%
- Cc1ccc(CN(C(=O)c2cc(=O)c3cc(C)cc(C)c3o2)C2CCS(=O)(=O)C2)cc1 (stereo not drawn) — higher, 10.8%
- CCCC(=O)Nc1c(-c2cccs2)c(=O)c2ccccc2n1C — lower, 5.25%
- ClCc1ncc(-c2ccc(Cl)cc2)o1 — higher, 18.7%
- CC(=O)Nc1ccc(NC(=O)CSc2ncc(C(=O)Nc3ccccc3)c(=O)n2C)cc1 — lower, 4.38%
- COc1ccc(Cl)cc1C(=O)N1CCN(Cc2ccc3c(c2)OCO3)CC1 — lower, 4.69%
- CCOC(=O)CC(=O)CSc1nc2cc(C)ccc2cc1C — higher, 15.7%
- COc1ccc(NC(=O)CSc2nnc(Cc3ccccc3)c(=O)n2N)c(OC)c1 — lower, 6.18%
- O=C(O)CCC(=O)N1N=C(c2ccco2)CC1c1ccco1 (stereo not drawn) — lower, 7.53%
- Cc1cc(C)n(CC(=O)NN)n1 — higher, 15%
- Oc1ccc(C(=C(Cl)Cl)c2ccc(O)cc2)cc1 — higher, 16.5%
- COC(=O)Nc1ccccc1C(=O)N1CCCCC1 — lower, 5.84%
- Cc1ccc(-n2nc3c(c2NC(=O)c2ccc4c(c2)OCO4)CSC3)cc1 — higher, 10.8%
- CCOC(=O)c1cc(-c2ccc(C#N)cc2)nc2c1c(C)nn2CCC#N — lower, -12.9%
- CC(C)CCN1CCN=C1Nc1ccccc1 — higher, 12.1%
- CCS(=O)(=O)NCc1cn2c(C)csc2n1 — lower, 0.136%
- OC(CNCc1ccccc1)(c1ccc(F)cc1)c1ccc(F)cc1 — lower, 0.369%
- Cc1ccc(NC(=O)NCCCN2CCCC2=O)c(C)c1 — lower, 9.02%
- CC1CCN(Cc2nc(-c3ccccc3)no2)CC1.Cl — higher, 9.88%
- CC(C)(C)OC(=O)NCCOC(=O)c1[nH]cnc1C(=O)NCc1ccccc1 — lower, 7.08%
- Cn1nccc1C(=O)N1CCC2(CC1)OCCO2 — higher, 11.7%
- c1ccc(-c2cn(C[C@H]3CC[C@@H]([C@@H]4CC[C@H](Cn5cc(-c6ccccn6)nn5)O4)O3)nn2)nc1 — lower, 8.63%
- Cc1ccc2nc(NC(=O)CSc3nc4c(c(=O)n3C)SC(C)C4)sc2c1 (stereo not drawn) — lower, 2.55%
- CC(=O)N1CCN(c2ccc(NC(=O)c3ccc([N+](=O)[O-])cc3Cl)cc2)CC1 — higher, 12.7%
- COCCCn1c(=O)c2sccc2n2c(CCCC(=O)NCc3cccc(OC)c3)nnc12 — lower, 4.16%
- COc1cccc2cc(C(C)OC(=O)Nc3ccc(C)cc3)oc12 (stereo not drawn) — higher, 9.7%
- COc1ccc(/C=N/NC(=O)c2cccnc2)cc1 — lower, 7.78%
